From paper PMC6212790
Some of the results follow. At the low end of the ranking the order means little.
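Further: rank score from −0.5 (least bound) to 0.5 (best bound).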

The sequences below were run against T1, GST-Rok-C97-191 (UniProt O34857) (assay: protein binding microarray). Conditions: Rok is a gene silencer of Bacillus subtilis; high values mean tight binding; most listed sequences are background and not binding sites; double strand, one strand shown.
T1 sequence: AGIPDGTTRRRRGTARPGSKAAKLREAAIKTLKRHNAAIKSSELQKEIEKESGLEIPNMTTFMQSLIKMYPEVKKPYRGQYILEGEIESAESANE
Work on GTTCAACA yielded a binding signal of 0.0437 E-score. In the case of CTTACGTC, the binding signal is reported as -0.00655 E-score. For GTCCTAGA, the binding signal was -0.199 E-score. With AGTCCCGA the binding signal was -0.25 E-score. With ATTCTTTA the binding signal was 0.162 E-score. CGTACAAC gave a binding signal of 0.0132 E-score. With ATTATGTC the binding signal was 0.00895 E-score. Work on CGGCTGTC yielded a binding signal of -0.357 E-score. In the case of GTTTGGAA, the binding signal is reported as 0.176 E-score. In the case of GAAGACTA, the binding signal is reported as 0.107 E-score. CACTTTAC showed a binding signal of 0.0431 E-score. With AGTAATAA the binding signal was 0.238 E-score. With AGCCAGAG the binding signal was -0.31 E-score. ACTCCTAG was tested, and the binding signal was 0.023 E-score. Sequence CCCATGCC has a binding signal of -0.0926 E-score. Work on ATAGTGCA yielded a binding signal of -0.145 E-score. CTAAGACC showed a binding signal of -0.137 E-score. Sequence ATATGTTG has a binding signal of 0.084 E-score. CTATTAAG gave a binding signal of 0.122 E-score. CAACTTGG showed a binding signal of -0.0938 E-score. CTATTAAA was tested, and the binding signal was 0.0376 E-score. GGCACCAA showed a binding signal of -0.188 E-score. Sequence CCGCCTAG has a binding signal of -0.149 E-score. ATGTGGAA was tested, and the binding signal was 0.0307 E-score. CGACTTAC was tested, and the binding signal was 0.143 E-score. In the case of CAAGACCA, the binding signal is reported as -0.0856 E-score. With GCAAACCA the binding signal was -0.0828 E-score. AAAAGCTA gave a binding signal of 0.124 E-score. With CTTGCGTA the binding signal was 0.0155 E-score. CTCAGTAA showed a binding signal of 0.00185 E-score. For ATCTGGGA, the binding signal was -0.128 E-score. For ATTTAATA, the binding signal was 0.214 E-score. For CTCATCAC, the binding signal was -0.017 E-score. ACTGTAAA gave a binding signal of 0.156 E-score. ATGTACAG gave a binding signal of 0.317 E-score. CTTACAAA was tested, and the binding signal was -0.00564 E-score. In the case of GAGACTGC, the binding signal is reported as -0.193 E-score. With AAAACGGG the binding signal was -0.0383 E-score. Work on CTTCAAGC yielded a binding signal of -0.141 E-score. With CGCCGTGC the binding signal was -0.194 E-score. For GCATCGCA, the binding signal was -0.146 E-score. In the case of GCCCTAGC, the binding signal is reported as -0.171 E-score. Sequence AGTTCTGA has a binding signal of 0.203 E-score. CATCAGTA gave a binding signal of 0.0127 E-score. ACAACGTG showed a binding signal of -0.0914 E-score. In the case of CCTTCTAC, the binding signal is reported as 0.235 E-score. AGCTCGCC showed a binding signal of -0.204 E-score. In the case of CGCTTGAA, the binding signal is reported as -0.051 E-score. Sequence GAACACAC has a binding signal of -0.143 E-score. Sequence GGCACCGA has a binding signal of -0.423 E-score. ACATACTA was tested, and the binding signal was 0.305 E-score. AATGGGGT showed a binding signal of -0.00667 E-score. Sequence TAAAGAAA has a binding signal of 0.0107 E-score. GCGTGAGC showed a binding signal of -0.312 E-score. Sequence CTCATGTA has a binding signal of 0.135 E-score. Sequence AACGAGGT has a binding signal of -0.12 E-score. For AGCACCCT, the binding signal was 0.0686 E-score. Sequence ACTTCAAA has a binding signal of 0.0987 E-score. Sequence CACTTTCA has a binding signal of -0.0558 E-score. CGAAACTA was tested, and the binding signal was 0.425 E-score. GGAGGCAC showed a binding signal of -0.0636 E-score. Work on GAACACGA yielded a binding signal of 0.0227 E-score. Work on CAATTCCC yielded a binding signal of 0.0632 E-score. With ATCATCCG the binding signal was -0.0673 E-score. AGATTTTA showed a binding signal of 0.299 E-score. CGCGCGCG showed a binding signal of -0.0372 E-score. CGCCGAAC showed a binding signal of -0.0774 E-score. ATGCTTCG was tested, and the binding signal was 0.014 E-score. AACAGTTA was tested, and the binding signal was 0.204 E-score. With GCCGTAAC the binding signal was 0.0479 E-score. For CCAGCCGC, the binding signal was -0.263 E-score. With ATGACTAC the binding signal was 0.145 E-score. With TGCACCAA the binding signal was 0.0482 E-score. Sequence CCATGCAC has a binding signal of -0.183 E-score. Sequence CTGTGTAC has a binding signal of 0.0804 E-score. CAAGTATA was tested, and the binding signal was 0.251 E-score. ACAGTAAA showed a binding signal of 0.251 E-score. Sequence AGGCTACC has a binding signal of -0.187 E-score. For ACTAGTAA, the binding signal was 0.423 E-score. With AGCAGCAG the binding signal was -0.148 E-score. ATCTTCAC gave a binding signal of 0.111 E-score. Work on CCTGCGCG yielded a binding signal of -0.0904 E-score. GGTCGTGA showed a binding signal of -0.175 E-score. With CGGAATTC the binding signal was 0.0787 E-score. For ACCGTTAT, the binding signal was 0.165 E-score. AGATCGAG was tested, and the binding signal was -0.0213 E-score. Work on CAACGGTG yielded a binding signal of -0.203 E-score. In the case of AACATGAG, the binding signal is reported as -0.00961 E-score. For ACTCGGAC, the binding signal was -0.176 E-score. With GAGGAAAC the binding signal was -0.161 E-score. ATGGTACG gave a binding signal of 0.137 E-score. With ACGGTATC the binding signal was 0.0548 E-score. For ATGACACC, the binding signal was -0.0746 E-score. AGGCCCCG showed a binding signal of -0.383 E-score. TGAGCCAA showed a binding signal of -0.216 E-score. AAAGGTTA was tested, and the binding signal was -0.115 E-score. For CTGGCTTA, the binding signal was -0.0809 E-score. AGTGCCCC showed a binding signal of -0.302 E-score. In the case of AGACTTAC, the binding signal is reported as -0.0408 E-score. AAGCGCAA gave a binding signal of -0.015 E-score. AGAGGTGC showed a binding signal of -0.216 E-score. With CCACCCTA the binding signal was 0.0328 E-score. AGCCGGGC gave a binding signal of -0.295 E-score. ACCAGGAG was tested, and the binding signal was -0.064 E-score. With CCTCCAAG the binding signal was -0.281 E-score. Work on GTAAAAAA yielded a binding signal of 0.246 E-score. For ACCCATTC, the binding signal was -0.031 E-score. For GCGCAGAA, the binding signal was 0.00407 E-score. AAGATGGT was tested, and the binding signal was -0.0403 E-score. In the case of CTGACTCA, the binding signal is reported as -0.13 E-score. Work on ATTAGTGG yielded a binding signal of 0.187 E-score. TCAGATGA was tested, and the binding signal was -0.0424 E-score. AAGACTGA was tested, and the binding signal was -0.0203 E-score. ATGCCCGC gave a binding signal of -0.112 E-score. AGCAGCCT was tested, and the binding signal was -0.144 E-score. Sequence CAACTCAC has a binding signal of 0.0168 E-score. With CTTGGGCC the binding signal was -0.329 E-score. Work on AGATTAAG yielded a binding signal of 0.053 E-score. Sequence ATAGCAGA has a binding signal of -0.0016 E-score. CCATGCAG gave a binding signal of -0.143 E-score. With CAATAGGA the binding signal was 0.00492 E-score. For CACCCCTA, the binding signal was -0.16 E-score. Work on CGGAAGGC yielded a binding signal of -0.346 E-score. In the case of GTACCCAC, the binding signal is reported as 0.0317 E-score. For TAATTAGA, the binding signal was 0.324 E-score. TAAGAGAA showed a binding signal of 0.209 E-score. Work on CGTTAGAG yielded a binding signal of -0.0338 E-score. CCAGCCAA showed a binding signal of -0.174 E-score. In the case of AATGCGTG, the binding signal is reported as -0.0174 E-score. Work on ACTTACCC yielded a binding signal of -0.202 E-score. AGACCGCG was tested, and the binding signal was -0.192 E-score. Sequence GTCCAGAA has a binding signal of -0.0181 E-score. AACGCCAT was tested, and the binding signal was 0.0575 E-score. In the case of AATTAATT, the binding signal is reported as 0.327 E-score. Work on CTATAGGA yielded a binding signal of 0.0674 E-score. CCGTCCGC was tested, and the binding signal was -0.179 E-score. ACCTACGG showed a binding signal of 0.13 E-score. For CCGGTAAG, the binding signal was 0.013 E-score. For GCTAACCC, the binding signal was -0.0526 E-score. CCTTCCGA gave a binding signal of -0.265 E-score. With ACGACACG the binding signal was -0.138 E-score. ATTTTTAC was tested, and the binding signal was 0.328 E-score. With AACCTAGT the binding signal was 0.207 E-score. AGGCGGCC gave a binding signal of -0.381 E-score. GTGTGTAA showed a binding signal of 0.152 E-score. CCTAGATA showed a binding signal of 0.0777 E-score. AGCGCGTC gave a binding signal of -0.162 E-score. In the case of GCGAGCCA, the binding signal is reported as -0.148 E-score. Work on ATTACAGC yielded a binding signal of 0.215 E-score. AGACCACA gave a binding signal of -0.105 E-score. CGTAGGGA showed a binding signal of -0.151 E-score. With CGACAGTA the binding signal was 0.208 E-score. Sequence CGGAAAGC has a binding signal of -0.153 E-score. Sequence CGGCGGTC has a binding signal of -0.0584 E-score. ACCTTTCG gave a binding signal of -0.0711 E-score. Sequence GGTGGGGA has a binding signal of -0.287 E-score. With CTCTCGTC the binding signal was -0.11 E-score. CGGTCACA showed a binding signal of -0.00534 E-score. Sequence ATCACCAC has a binding signal of 0.0496 E-score. In the case of CGTCTAAA, the binding signal is reported as -0.0728 E-score. Sequence GGAAATGA has a binding signal of -0.0558 E-score. AACTTAAG gave a binding signal of 0.0428 E-score. ATATTACC showed a binding signal of 0.304 E-score. AGTCTTAT gave a binding signal of 0.256 E-score. AAGCGGCA showed a binding signal of -0.227 E-score. For TAGTAATA, the binding signal was 0.403 E-score. CGCATAAC was tested, and the binding signal was 0.0446 E-score. Work on CTTTCGTC yielded a binding signal of 0.0144 E-score. In the case of GAGCACAC, the binding signal is reported as -0.0393 E-score. Sequence AGTTATAT has a binding signal of 0.239 E-score. Sequence ATGGGCAC has a binding signal of -0.122 E-score. TGTCGCAA showed a binding signal of 0.027 E-score.
